Among all 310,000 compounds or so, about 2,200 (0.71%) showed an effect of 50% or more. The effect is printed as a negative number. Some of the results follow.
Target: human ether-à-go-go-related gene (hERG) potassium channel (human, UniProt Q12809)
Test: primary screen, population patch clamp on CHO cells stably expressing hERG

human ether-à-go-go-related gene (hERG) potassium channel, sequence (Q12809 whole entry, looked up): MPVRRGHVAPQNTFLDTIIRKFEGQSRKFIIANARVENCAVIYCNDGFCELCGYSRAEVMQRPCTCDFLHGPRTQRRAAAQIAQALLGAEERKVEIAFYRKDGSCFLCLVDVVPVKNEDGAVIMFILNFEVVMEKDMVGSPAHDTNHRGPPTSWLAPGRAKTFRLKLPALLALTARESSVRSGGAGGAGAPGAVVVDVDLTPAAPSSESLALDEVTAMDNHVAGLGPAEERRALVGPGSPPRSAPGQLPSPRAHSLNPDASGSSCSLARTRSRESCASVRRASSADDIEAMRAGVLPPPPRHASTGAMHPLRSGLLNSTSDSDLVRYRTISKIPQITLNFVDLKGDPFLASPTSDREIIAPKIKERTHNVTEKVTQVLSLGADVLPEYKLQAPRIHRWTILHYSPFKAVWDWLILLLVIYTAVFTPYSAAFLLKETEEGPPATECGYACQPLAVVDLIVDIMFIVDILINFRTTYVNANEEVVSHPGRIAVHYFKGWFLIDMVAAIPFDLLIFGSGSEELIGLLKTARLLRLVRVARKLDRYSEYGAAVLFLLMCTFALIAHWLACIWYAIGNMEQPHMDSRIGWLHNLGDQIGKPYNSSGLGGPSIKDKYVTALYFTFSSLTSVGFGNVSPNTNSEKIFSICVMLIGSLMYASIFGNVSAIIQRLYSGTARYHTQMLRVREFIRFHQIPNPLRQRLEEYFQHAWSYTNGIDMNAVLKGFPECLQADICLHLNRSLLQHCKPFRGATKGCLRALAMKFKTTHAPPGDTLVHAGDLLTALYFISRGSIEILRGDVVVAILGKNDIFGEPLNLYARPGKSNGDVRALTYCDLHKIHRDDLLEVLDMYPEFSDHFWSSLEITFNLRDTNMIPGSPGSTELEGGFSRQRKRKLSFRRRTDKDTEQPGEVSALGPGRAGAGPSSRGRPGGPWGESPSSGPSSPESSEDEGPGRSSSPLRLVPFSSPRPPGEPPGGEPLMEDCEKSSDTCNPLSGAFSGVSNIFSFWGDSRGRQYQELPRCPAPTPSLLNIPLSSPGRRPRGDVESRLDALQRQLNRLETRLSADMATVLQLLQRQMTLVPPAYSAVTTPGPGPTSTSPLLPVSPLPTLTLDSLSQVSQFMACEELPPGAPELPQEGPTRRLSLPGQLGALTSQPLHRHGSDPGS

SMILES | hERG current change (%, negative = inhibition) at 1uM [%]
COc1ccc(C=O)cc1 | 10.8
COCc1cc(=O)[nH]c(Nc2nc(C)c3ccccc3n2)n1 | 6.35
N#Cc1nc(-c2ccccc2F)oc1NC1CCCCC1 | 1.1
Cc1sc2nc(CSCC(=O)Nc3ccc(C(=O)N(C)C)cc3)[nH]c(=O)c2c1C | 13
COc1ccc(NC(=O)CSc2nc(C)cs2)cc1OC | 9.55
CCCc1nn2c(=O)cc(CSCC(=O)Nc3nnc(CC)s3)nc2s1 | 12.4
CC(C)Oc1cccc(C(=O)Nc2ccccc2N2CCOCC2)c1 | -1.22
Cc1cc(=O)cc(C)n1-c1ccccc1N1CCOCC1 | 7.99
COc1ccc(C2C(C(=O)c3cccs3)=C(O)C(=O)N2c2nncs2)cc1 (stereo not shown) | 11.7
CCn1c(C)c(C(C)=O)cc(C#N)c1=O | 8.34
N/C(Cc1nc2ccccc2s1)=N\O | 8.45
c1csc(CNc2ncnc3ccc(-c4ccoc4)cc23)c1 | 9.91
COc1ccc(/C=C/C(=O)OCC(=O)NCc2ccccc2)cc1OC | 13.2
CN(C)C(CNC(=O)c1ccc2ccccc2c1)c1ccco1 (stereo not shown) | 4.08
CCOc1ccc(CCNC(=O)c2c(C)nn(-c3ccccc3)c2Cl)cc1OCC | -6.57
CCc1ccc2[nH]c(=O)c(CN(CCN(C)C)C(=S)NCc3ccco3)cc2c1 | -4.63
Cc1ccc2nc(NC(=O)CCNS(=O)(=O)c3cccs3)sc2c1 | 5.2
CCCN(CCC)c1nc(NC2CCN(C(=O)OCC)CC2)nc(OC)n1 | 7.35
CCOC(=O)C1=C(N)Oc2cc(O)ccc2C1c1ccc(C)cc1 (stereo not shown) | 6.52
Cc1sc2nc(C3CC3)nc(SCC(=O)N3CCCc4ccccc43)c2c1C | 16.5
Cc1ccc(NS(=O)(=O)c2ccc(OCC(=O)NCc3ccccn3)cc2)cc1 | 16
Cc1nnc(NC(=O)C(C)Sc2nnc(CCNC(=O)c3ccccc3F)n2C)s1 (stereo not shown) | 17.3

SMILES | hERG current change (%, negative = inhibition) at 1uM [%]
COc1ccc(C(=O)Nc2ccc(O)c3ccccc23)cc1OC | 12.1
O=C(CSc1ncnc2c1oc1ccccc12)NC1CCCC1 | -20.3
O=C(CCc1nnc(-c2ccsc2)o1)N1CCc2c(Cl)cccc2C1 | 0.759
CCOC(=O)c1c(CN2CCOCC2)n(-c2ccccc2)c2cc(Br)c(O)c(CN(C)C)c12 | -2.3
CCCC(C)NC(=O)c1ccc(C2SCC(=O)N2Cc2ccco2)cc1 (stereo not shown) | 9.61
CSc1cccc(NC(=O)Nc2nc3c(C)cccc3s2)c1 | 11.8
Cc1ccc2nc(N3CCN(c4ccccc4)CC3)c(C=O)c(=O)n2c1 | 0.7
COc1ccc(-c2oc(=O)c3cc(OC)c(OC)cc3c2/C=C/c2ccc(F)cc2)cc1 | 20.6
CC(C)=CC(=O)Nc1ccc2c(c1)OCO2 | 13.4
Cc1ccc(C(=O)c2ccccc2C(=O)O)s1 | 0.373
N#CCCCC#Cc1ccc2c(c1)COc1c3ccccc3nn1-2 | 9.98
COc1ccc(OCC(=O)OC(C)CN2CCOCC2)cc1 (stereo not shown) | 16
CC(C)C(=O)Nc1ccc(S(=O)(=O)Nc2nccc(/C=C/c3ccccc3)n2)cc1 | 11.8
COc1cccc(CN(C)C(=S)Nc2cccc(C)c2)c1 | 16.3
CC1CCN(S(=O)(=O)c2ccc3c(c2)c(=O)c(C(=O)NC2CCCC2)cn3C)CC1 | 9.59
COc1ccc(C(C)=O)c(Oc2nc(CN3CCOCC3)nc3scc(-c4cccs4)c23)c1 | 1.14
Cn1c(CCN2CCN(c3ccccn3)CC2)nc2cc(NC(=O)COc3ccc([N+](=O)[O-])cc3)ccc21 | 9.63
COCCNC(=O)C(=O)NCC1OCCN1C(=O)c1ccc(Cl)cc1 (stereo not shown) | 5.99
O=C(CN1C(=O)CCC1=O)Nc1nc(-c2ccc3ccccc3c2)cs1 | 5.6
CCOc1ccc(NC(=O)C/C(C)=N/NC(=O)Cc2cccs2)cc1 | 20
O=C(CN1CCCC1)Nc1c2c(nc3ccccc13)N(Cc1ccccc1)CC2.O=C(O)C(=O)O | 5.47
C=CCc1cccc2cc(C(=O)N3CCN(C(=O)c4ccccc4)CC3)c(=O)oc12 | 8.04

SMILES | hERG current change (%, negative = inhibition) at 1uM [%]
Cc1cc(/C=N/NC(N)=O)c(C)n1C1CCCCC1 | 2.5
COc1ccc2nc(SCC(=O)Nc3ccc4c(c3)CCC4)[nH]c2c1 | 10.4
COC(=O)C(C)Sc1ccc2nnc(-c3ccccc3)n2n1 (stereo not shown) | -2.06
Cc1ccc(C(=O)NN2CCOCC2)cc1[N+](=O)[O-] | 15.1
Cc1cccnc1NC(=O)C1CCN(S(=O)(=O)c2ccc3c(c2)CCC(=O)N3)CC1 | 15
Cc1[nH]c2c(ccc3cccnc32)c1C | 11.7
COc1ccc(/C=N\NC(=O)c2ccccc2Br)cc1COc1c(F)c(F)cc(F)c1F | 3.99
COc1ccc(CCC(=O)NCCCNC(=O)CCc2ccc(OC)cc2)cc1 | 10.1
COc1cccc(/C=C/C(=O)OCC(=O)c2ccc(C)c(C)c2)c1OC | 2.49
CCOc1ccc(OCCC(=O)N(CC)CC(=O)Nc2c(F)cccc2F)cc1 | -8.38
Cc1cc(NC(=O)CSc2nnc(C3CC3)n2N)no1 | 6.51
CCOc1cc(/C=N/NC(=O)c2cccnc2)ccc1OCC(N)=O | 10.8
CC(=O)N1CCC(=O)Nc2ccc([N+](=O)[O-])cc21 | 10.9
CC(OC(=O)c1ccc2ncsc2c1)C(=O)Nc1cccc(Cl)c1 (stereo not shown) | 8.7
Cc1ccc(N2C(=O)N(CC(=O)Nc3ccc(C)c(C)c3)C(=O)C2C)cc1 (stereo not shown) | 7.57
O=C(COC(=O)c1c[nH]c2ccccc12)Nc1ccc([N+](=O)[O-])cc1 | 4.86
O=C(Cc1ccccc1)NCc1ccc(-n2cccc2)cc1 | 20.6
CCOC(=O)C1CCN(C(c2ccccn2)c2c(C)[nH]c3ccccc23)CC1 (stereo not shown) | -0.662
CSc1cccc(NC(=O)C2CC(=O)N(Cc3ccccc3)C2)c1 (stereo not shown) | 6.3
O=C(CCn1c(=O)oc2ccccc21)N1CCN(c2ccccc2Cl)CC1 | 2.43
O=C(Nc1cccc(C(F)(F)F)c1)C1CCCN1S(=O)(=O)c1cccc2cccnc12 (stereo not shown) | -2.23
Cc1ccc(NC(=O)CSc2ncn[nH]2)cc1 | 14.8

SMILES | hERG current change (%, negative = inhibition) at 1uM [%]
C=C1C2(C(=O)NCc3ccco3)CCC(C2)C1(C)C (stereo not shown) | 7.25
Br.Cc1ccc(C(=O)C(c2ccccc2)N2Cc3ccccc3C2=N)cc1 (stereo not shown) | 3
Cc1cc(C)c2nc(NC(=O)CN3C(=O)NC4(CCCC4)C3=O)sc2c1 | 17.9
C#CCNC(=O)C1=C[C@H](c2ccc(Br)cc2)C[C@H](OCCCCO)O1 | 11.3
COc1ccc(NC(=O)CCc2c(C)nc3nc(C)nn3c2C)cc1 | 16
CCOC(=O)c1[nH]cnc1C(=O)Nc1cccc(N)n1 | 4.15
Cc1ccc(CN2CCN(Cc3c(C)nn(C(C)C)c3C)CC2CCO)o1 (stereo not shown) | 10.6
CN1CCN(C(=S)c2ccc(-c3cccc([N+](=O)[O-])c3)o2)CC1 | 0.959
NC(=O)CSc1nnc(Cn2cnc3ccccc32)o1 | 12.9
COc1ccccc1/C=N/NC(=O)CNC(=O)c1ccccc1 | 0.456
CSCC(=O)N1CCC(n2nccc2NC(=O)CCc2ccccc2)CC1 | 16.8
CN(C)N=Nc1nc2c(c(=O)n(C)c(=O)n2C)n1CC1CO1 (stereo not shown) | 4.28
CCc1ccc(S(=O)(=O)NCCOc2cccc3cccnc23)cc1 | 7
OCOCCCn1c(C2CCCN2c2nc(-c3ccc(F)cc3)cs2)nc2cc(Cl)c(N3CCCCC3)cc21 (stereo not shown) | 6.69
Cc1cc(C)c(-n2c(O)c(/C=N/NC(=O)c3ccncc3)c(=O)[nH]c2=O)c(C)c1 | 6.69
C#CCOCCOCCOCCNc1nc(N2CCN(C(=O)[C@H](Cc3ccc(O)cc3)n3cc([C@@H](N)C(C)CC)nn3)CC2)nc(N2CCN(C(=O)[C@H](Cc3cc4ccccc4[nH]3)n3cc([C@@H](N)Cc4ccc(O)cc4)nn3)CC2)n1.Cl (stereo partly shown) | 11.8
Cc1cccc(NC(=O)CNC(=O)c2cn(Cc3ccccc3)nc2-c2cccnc2)c1C | 5.89
O=C(NNC(=O)c1ccccc1O)c1ccco1 | 18
Cc1cnc(NC(=O)c2cncc(Br)c2)s1 | 8.91
COC(=O)c1ccc(Cn2nc(-c3ccc(C)c(C)c3)ccc2=O)cc1 | 12.9
Nc1nc(N)c2c(ccc3nccc32)[nH]1 | 16.9
Cn1c(N)c(C(C[N+](=O)[O-])c2ccccc2Cl)c(=O)n(C)c1=O (stereo not shown) | 15.4

— article PMC4336329 (PLoS ONE, 2015)
